PubChem BioAssay (Tox21)
Several values for one entry are separate records, joined by “and”; a condition that tells them apart may be missing. Equal entries are not always repeated. The inconclusive results got no clear call from the source; some entries with a clear call stand among them for comparison. Potencies beside an inconclusive call are fits to weak or partial responses and may not hold up. Some structures have more than one record in an assay (separate samples or runs), and their calls can disagree. Activity calls are given as the source filed them. Calls come from the whole dose curve; as a rule, active = well fitted activation curve with a large enough effect in the signal ratio in the repeat runs (not every such curve was filed as active); inconclusive = weak or mixed curves, or effect the other way; inactive = no such curve, though single readings can be large or run the other way; the % refers to the signal ratio.

What follows are compounds tested against Glucocorticoid receptor (Homo sapiens) (UniProt P04150) (assay: qHTS assay to identify small molecule agonists of the glucocorticoid receptor (GR) signaling pathway (AID 720691)). Conditions: GR-bla HeLa, beta-lactamase reporter ratio, 18 h; activation: at 62.4 µM (top of the series) unless noted.
Description: U.S. Tox21 Program National Center for Advancing Translational Sciences [NCATS] NIH Chemical Genomics Center [NCGC] U.S. Environmental Protection Agency [EPA] National Institutes of Environmental Health Sciences [NIEHS] National Toxicology Program [NTP] U.S. Food and Drug Administration [FDA] Tox21 Assay Overview: The Glucocorticoid receptor (GR) is one of the members of the nuclear receptor family of ligand-dependent transcription factors. GR plays a critical role in carbohydrate, protein and lipid metabolisms and programmed cell death. CellSensor GR-bla HeLa cell line (Invitrogen) contains a beta-lactamase reporter gene under the control of the glucocorticoid response element stably integrated into HeLa cells, a cervical cancer cell line that expresses glucocorticoid receptor. The activation of the reporter gene under culture conditions can be detected by fluorescence intensity. This cell line has been used to screen the Tox21 10K compound library and to identify the compounds that activate the GR signaling.
Tox21 Assay Protocol Summary: The GR-bla HeLa cells were dispensed at 1500 cells/6 ul/well in 1536-well black wall/clear bottom plates using a Multidrop Combi (ThermoFisher Scientific, Waltham, MA) dispenser. After the assay plates were incubated at a 37 C/5% CO2 incubator for 4 hours, 23 nL of compounds dissolved in DMSO, positive controls or DMSO only was transferred to the assay plate by a pintool station (Kalypsys, San Diego, CA). The plates were incubated at 37 C for 18 hours. After 1 uL of LiveBLAzerTM B/G FRET substrate was added using a Flying Reagent Dispenser (Aurora Discovery, San Diego, CA), the plates were incubated at room temperature for 2 hours, and fluorescence intensity was measured by an Envision plate reader (PerkinElmer, Shelton, CT).
% is set by controls: 0 for no effect and ±100 for the full control effect; potency is the fitted concentration of half-maximal effect; tags give direction and shape of the fitted curve or compound fluorescence and quenching.

UniProt P04150, sequence (P04150 whole entry, looked up): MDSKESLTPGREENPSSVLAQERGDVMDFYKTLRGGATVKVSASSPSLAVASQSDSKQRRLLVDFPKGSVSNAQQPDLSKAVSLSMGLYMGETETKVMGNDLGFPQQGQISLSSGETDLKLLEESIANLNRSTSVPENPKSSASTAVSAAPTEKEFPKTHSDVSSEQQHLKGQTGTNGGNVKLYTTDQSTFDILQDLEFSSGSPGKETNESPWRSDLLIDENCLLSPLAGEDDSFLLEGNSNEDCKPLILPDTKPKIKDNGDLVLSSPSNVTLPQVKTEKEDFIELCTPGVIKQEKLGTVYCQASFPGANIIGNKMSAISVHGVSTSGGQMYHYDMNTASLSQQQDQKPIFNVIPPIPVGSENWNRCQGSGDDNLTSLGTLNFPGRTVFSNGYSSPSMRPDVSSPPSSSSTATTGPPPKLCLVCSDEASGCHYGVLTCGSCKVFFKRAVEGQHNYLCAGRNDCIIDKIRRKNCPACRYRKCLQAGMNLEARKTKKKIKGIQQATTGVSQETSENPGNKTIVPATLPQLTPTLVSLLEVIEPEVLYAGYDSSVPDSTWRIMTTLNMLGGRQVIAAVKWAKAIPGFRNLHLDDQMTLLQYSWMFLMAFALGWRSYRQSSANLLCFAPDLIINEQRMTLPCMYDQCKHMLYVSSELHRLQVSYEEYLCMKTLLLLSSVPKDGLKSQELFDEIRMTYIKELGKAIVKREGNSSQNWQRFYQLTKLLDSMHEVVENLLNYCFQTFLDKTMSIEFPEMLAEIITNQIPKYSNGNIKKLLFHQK

SMILES	Potency	activation
ClP(Cl)(Cl)(Cl)Cl	inactive	–
COc1ccc(N)cc1N	inconclusive: 63.6 µM [inhibitor]	–
O=[N+]([O-])c1ccc(CBr)cc1	inactive	–
C=C(C)C(=O)OCC1CO1 (stereo not given)	inactive	–
CCN(CC)C(=S)[S-].CCN(CC)C(=S)[S-].[Zn+2]	inconclusive: 6.11 µM [inhibitor]	–
CCCCNC(=O)OCC#CI	–	inconclusive: -17.6% and inconclusive: -6.68% [phenotype inactive]
C[C@]12CCC(=O)C=C1CC[C@@H]1[C@@H]2CC[C@@]2(C)[C@H]1CC[C@]2(C)O	inconclusive: 5.54 µM [inhibitor, partial curve, poor fit]	inconclusive: -12.5%
CCCCCCOC(=O)c1ccccc1C(=O)OCCCCCC	inactive	–
CCCCN(CCCC)C(=S)[S-].CCCCN(CCCC)C(=S)[S-].[Zn+2]	inconclusive: 26.8 µM [cytotoxic, partial curve, poor fit] and inconclusive: 11 µM	–
CC1COC(Cn2cncn2)(c2ccc(Oc3ccc(Cl)cc3)cc2Cl)O1 (stereo not given)	inconclusive: 61.6 µM [cytotoxic, single point]	–
Cc1ccc(Cl)c(O)c1	inactive	–
CC1=C(C(=O)Nc2ccccc2)SCCO1	inactive	–
CC(=O)NC1CCSC1=O (stereo not given)	inactive	–
N#CCCCl	inactive	–
Cl/C=C\Cl	–	inconclusive: 2.28% [phenotype inactive]
CCCCN(CCCC)C(=S)S	inactive	–
N#CC(CCc1ccc(Cl)cc1)(Cn1cncn1)c1ccccc1 (stereo not given)	inconclusive: 61.6 µM [cytotoxic, single point]	–
C=CCN(CC=C)C(=O)C(Cl)Cl	inactive	–
CCOC(=O)Nc1cccc(OC(=O)Nc2ccccc2)c1	inactive	–

SMILES	Potency	activation
O=C(CCl)Nc1ccccc1	inconclusive: 61.6 µM [inhibitor, partial curve, poor fit]	–
IC(I)=C(I)I	–	inconclusive: 7.71% [phenotype inactive]
CCCCCCCCCCCCCCCC[n+]1ccccc1	inconclusive: 32.3 µM [cytotoxic, partial curve] [middle of 4 runs]	–
CNC(C)Cc1ccccc1OC (stereo not given)	–	inconclusive: -13.5%
CC(C)(C)C(O)(CCc1ccc(Cl)cc1)Cn1cncn1 (stereo not given)	–	inconclusive: -10.3%
O=C(NC(=O)c1ccccc1Cl)Nc1ccc(OC(F)(F)F)cc1	inactive	–
CC(=O)C(Cl)C(=O)N(C)C (stereo not given)	–	inconclusive: 10%
COC(=O)N(C(=O)N1CO[C@@]2(C(=O)OC)Cc3cc(Cl)ccc3C2=N1)c1ccc(OC(F)(F)F)cc1	inconclusive: 26.6 µM [partial curve]	–
CC(C)(C)c1ccccc1O	inactive	–
c1coc(-c2nc3ccccc3[nH]2)c1	inactive	–
C[C@]12C/C(=C/O)C(=O)C[C@@H]1CC[C@@H]1[C@@H]2CC[C@@]2(C)[C@H]1CC[C@]2(C)O	inconclusive: 8.49 µM [rising, partial curve]	–
Cc1ccc(N=CN(C)C=Nc2ccc(C)cc2C)c(C)c1	inconclusive: 54.9 µM [falling, single point]	inconclusive: 2.29% [phenotype inactive] [at 79.2 µM]
C#C[C@]1(O)CC[C@H]2[C@@H]3CCC4=CC(=O)CCC4=C3C=C[C@@]21CC	–	inconclusive: -16.3%
COC(=O)N(OC)c1ccccc1COc1ccn(-c2ccc(Cl)cc2)n1	–	inconclusive: 4.21% [phenotype inactive]
CCCCCCCCC(=O)NCc1ccc(O)c(OC)c1	active: 30.1 µM	inconclusive: -10.4%
CN1C(=O)CN=C(c2ccccc2)c2cc(Cl)ccc21	–	inconclusive: -11.1% [at 79.2 µM]
O=C1C(=O)c2cccc3cccc1c23	–	inconclusive: 0.885% [phenotype inactive]
Clc1ccc(CCC(Cn2ccnc2)Sc2c(Cl)cccc2Cl)cc1 (stereo not given)	inconclusive: 11.5 µM	–
